Results on 53 compounds are retold here after ChEMBL document CHEMBL4888484, “Replenishing the malaria drug discovery pipeline: Screening and hit evaluation of the MMV Hit Generation Library 1 (HGL1) against asexual blood stage Plasmodium falciparum ,using a nano luciferase reporter read-out” (2022).

The whole screen tested about 150,000 compounds, of which about 540 (0.36%) showed an effect of 50% or more. Some of the results follow.

The test system of this assay is Plasmodium falciparum. In words: Primary screen in NF54 nanoGlo assay, in single point, at 2uM, 72h; a lower Z score goes with more inhibition. The assay is classed as functional, Erythrocyte. Particulars: timepoint 72 hour.
Regarding `COc1ccc(OCc2nc(C)cc(=O)n2CC(=O)NCc2ccc3c(c2)OCO3)cc1`, the “% Inhibition” value is given as -14% and the Z score is 2.04.
Regarding `COC(=O)[C@H](CCOc1ccc(OC)cc1)NC(=O)OC(C)(C)C`, the “% Inhibition” value is -9% and the Z score is given as 1.79.
As for `C[C@@H](C(=O)NC1CCCC1)S(=O)(=O)Cc1cc(Cl)c2c(c1)OCCCO2`, the “% Inhibition” value was -10% and the Z score came out at 0.92.
On the same counts, the results for `Cn1c(CN2CC[C@H](O)C2(C)C)nc2ccc(Cl)cc21` are 0% and -0.06.
The like results for `CN1CCCc2cc(C(=O)NC3CCCCCC3)sc21` were, in that order, 2% and -0.37.
With `Cc1cc(C(=O)N[C@H]2CCO[C@@H]2c2nccn2-c2ccccc2)[nH]n1`, the “% Inhibition” value is recorded as 6% and the Z score is -0.81.
As for `COc1ccc(CCNc2ccc(-c3nc(-c4cccc(Cl)c4)no3)nn2)cc1OC`, the “% Inhibition” value is reported as 18% and the Z score was -2.05.
Consider `CN(C)c1ccc(NC(=O)C2CCCC2)cn1`, for which the “% Inhibition” value is given as -9% and the Z score was determined as 1.67.
Regarding `CN(Cc1cocn1)Cc1cnn2c1CN(C(=O)OC(C)(C)C)CC2`, the “% Inhibition” value is -11% and the Z score is listed as 2.32.
In the case of `CCC[C@H]1CN(C(=O)NCc2ccc(F)cc2)C[C@@H]1C(=O)O`, the “% Inhibition” value is on record as -8% and the Z score was 1.45.
Consider `Cc1cc(NC(=O)CCOCC(F)F)cc(C)c1O`, for which the “% Inhibition” value was -6% and the Z score was determined as 0.87.
For the compound `Cc1cnc(C(=O)N2CCC[C@H]2c2nc(CCOCc3ccccc3)no2)cn1`, the “% Inhibition” value is given as -9% and the Z score turned out to be 1.2.
As to `CCC(CC)(CO)CN(C)C(=O)[C@H](C)n1ccnc1C`, the “% Inhibition” value was -14% and the Z score is given as 1.75.
The like results for `O=C(NC1CCN(S(=O)(=O)[C@H]2CCOC2)CC1)c1ccsc1` were, in that order, -6% and 0.65.
On the same counts, the results for `CC(C)(C)OC(=O)N1CC2(C1)OCCCN2C(=O)[C@@H]1CCCCO1` are -18% and 2.42.
Regarding `Cc1ccc(-n2ncc3c(N)c4c(nc32)C[C@H](c2ccccc2)CC4=O)cc1C`, the “% Inhibition” value is on record as -15% and the Z score is recorded as 1.96.
Consider `Cc1nnsc1C(=O)N1CCc2nc(NC(=O)c3cnccn3)sc2C1`, for which the “% Inhibition” value was -3% and the Z score was determined as 0.41.
The like results for `CC(C)CN([C@H]1CCCc2cccnc21)S(=O)(=O)N(C)C` were, in that order, -3% and 0.52.
As to `COc1cccc(CC(C)NC(=O)N2CCC(C)C2CO)c1` (stereo unspecified), the “% Inhibition” value is recorded as -14% and the Z score is 1.73.
On to `CCOC(=O)CN(CC(C)C)C(=O)Cc1csc(CC)n1`, for which the “% Inhibition” value is reported as -1% and the Z score came to 0.07.
In the case of `Cc1ccc(S(=O)(=O)NCCN(CCNS(=O)(=O)c2ccc(C)cc2)Cc2ccccc2)cc1`, the “% Inhibition” value is reported as -3% and the Z score amounted to 0.44.
Turning to `CC[C@H](NCc1cccc(C(=O)O)n1)c1ccncc1`, the “% Inhibition” value is recorded as -5% and the Z score is on record as 1.05.
On to `CCN(Cc1nc2cc(Cl)ccc2c(=O)[nH]1)Cc1cccc2cccnc12`, for which the “% Inhibition” value is reported as 20% and the Z score is -2.28.
`Nc1nsc(N2CCN(CC(=O)N3CCN(c4ccccc4F)CC3)CC2)n1`: the “% Inhibition” value is listed as -11% and the Z score turned out to be 1.5.
With `Cc1ccc(-n2nccc2NC(=O)C(=O)N[C@H](c2ccccn2)C(C)C)nn1`, the “% Inhibition” value stood at 3% and the Z score is -0.32.
Turning to `Clc1cccc(OCc2cccc(-c3nc4ccccc4s3)c2)c1Cl`, the “% Inhibition” value is recorded as -3% and the Z score stood at 0.31.
The like results for `COC(=O)C[C@H](C)NC(=O)c1cc(C)n(CC2CC2)c1C` were, in that order, -10% and 0.84.
For `C=CCOc1ccc(C(=O)[C@@H]2[C@@H]3CCCN3[C@]3(C(=O)Nc4ccccc43)[C@@]23C(=O)Nc2ccccc23)cc1`, the “% Inhibition” value is on record as -2% and the Z score came out at 0.39.
As for `COc1cccc(C2CN(C(=O)C3CCCC3)CC2C(=O)NCCC(C)C)c1` (stereo unspecified), the “% Inhibition” value was -8% and the Z score is 0.79.
For `Cc1cc(C)c2c(c1)N(Cn1nc(C(C)(C)C)ccc1=O)CCC2`, the “% Inhibition” value is -4% and the Z score was 0.62.
As for `O=C(CCOCC(F)(F)C(F)(F)F)NCCNC(=O)c1c(F)cccc1F`, the “% Inhibition” value is -8% and the Z score was 0.69.
On to `CCn1cc(C(=O)N(C)C2CCCC2c2ccccc2)cn1` (stereo unspecified), for which the “% Inhibition” value was -8% and the Z score is 0.93.
The like results for `COc1ccc(C(=O)NC(C)(C)C)cc1OC` were, in that order, -11% and 1.38.
For the compound `NC(=O)C1CCN(C(=O)c2[nH]nc(C3CC3)c2Br)CC1`, the “% Inhibition” value was -8% and the Z score is recorded as 0.98.
Regarding `COc1cc2ccccc2cc1C(=O)Nc1sc2c(c1C(N)=O)CCCC2`, the “% Inhibition” value worked out at 3% and the Z score is on record as -0.42.
As for `CC[C@H]1C(=O)NCCCN1Cc1cnc(OC)c(Cl)c1`, the “% Inhibition” value is listed as -8% and the Z score was 1.11.
With `CN(Cc1noc(C2CCCC2)n1)C(=O)c1cnn2ccn(C)c12`, the “% Inhibition” value is on record as -8% and the Z score came out at 1.15.
With `Cc1nc(C)c(C(=O)N2CCO[C@@H](c3ccc(Cl)cc3)C2)o1`, the “% Inhibition” value is -14% and the Z score is reported as 1.82.
As for `Cc1ccc(C(=O)N(Cc2cocn2)Cc2cocn2)n1C(F)F`, the “% Inhibition” value is on record as -1% and the Z score is 0.11.
On to `O=C(CCN1C(=O)c2ccccc2C1=O)N1CCCCCC1`, for which the “% Inhibition” value turned out to be 8% and the Z score is -1.11.
The like results for `COCCCN1C(=O)c2ccc(C(=O)N3CCN([C@@H](C)c4nc5ccccc5s4)CC3)cc2C1=O` were, in that order, 7% and -0.95.
With `O=C(OCc1ccccc1)c1cccc(NCc2nnc(C3CC3)o2)c1`, the “% Inhibition” value amounted to 0% and the Z score worked out at 0.03.
Consider `Cc1c(Cl)cc(C(=O)N2C[C@@H]3[C@@H](CN(C)C)[C@@H]3C2)cc1Cl`, for which the “% Inhibition” value was -7% and the Z score stood at 1.35.
In the case of `CCC[C@]1(CO)CCN(Cc2cc3c(C)cc(C)cc3[nH]2)C1`, the “% Inhibition” value is given as -1% and the Z score is reported as 0.17.
Consider `O=C(Nc1nc(CCc2c[nH]c3ccccc23)n[nH]1)C1CCCCC1`, for which the “% Inhibition” value turned out to be 0% and the Z score is listed as 0.02.
As for `Cc1c(CN2CCC(Cc3ccc(CN4CCCC4)cc3)CC2)cnn1C`, the “% Inhibition” value was -10% and the Z score is reported as 1.91.
Turning to `O=S(=O)(c1c(F)cc(F)cc1Br)N1CCc2ccccc21`, the “% Inhibition” value stood at 29% and the Z score is on record as -3.96.
On to `Cc1ccc(-c2nc(CNS(=O)(=O)c3ccc(F)cc3)no2)o1`, for which the “% Inhibition” value stood at 8% and the Z score is on record as -0.77.
As for `CC1(C)C(NC(=O)N2CCOCC2)C2CCCOC21` (stereo unspecified), the “% Inhibition” value is -12% and the Z score is reported as 1.83.
For `Cc1noc(-c2nc(Cc3ccccc3)no2)n1`, the “% Inhibition” value is reported as -10% and the Z score is 1.23.
Regarding `CCc1ccc(NC(=O)N2CCCCC[C@H]2c2ccc(C)s2)cc1`, the “% Inhibition” value was determined as 6% and the Z score is -1.16.
With `O=C1C2N=NN(c3ccccc3Cl)C2C(=O)N1c1ccc2c(c1)CCC2` (stereo unspecified), the “% Inhibition” value is -8% and the Z score is 0.88.
Regarding `CN(C(=O)C1CCN(C2CCN(CCCc3ccccc3)CC2)CC1)[C@H]1CCOC1`, the “% Inhibition” value is given as -3% and the Z score is listed as 0.31.

One may read the % Inhibition as the drop in the measured response relative to a control, in per cent.
